# Measurements reported in the supplement of paper PMC7826260.
# The list shows a part of the results. One pool of 16,384 single-stranded DNAs met each Rep nickase domain in vitro (3 µM enzyme, 1 h, 37 °C); shown is the middle of each 90-letter strand. Numbers give uncut DNA relative to the enzyme-free pool, as log2; more negative means more cut, near 0 not cut, and no call is made. Reads are scaled to the total; uncut strands gain when others are lost, and binding without cutting may add a little.
# Tested on: T1, Rep nickase domain of tomato golden mosaic virus
# T1 sequence (Rep 1-124, printed without the tag): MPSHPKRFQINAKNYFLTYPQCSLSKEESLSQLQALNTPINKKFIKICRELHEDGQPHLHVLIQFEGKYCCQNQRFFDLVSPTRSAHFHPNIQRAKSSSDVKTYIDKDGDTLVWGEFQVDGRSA
# Assay: uncleaved DNA left, log2 of reads against the no-enzyme library (log2 ratio); higher = less cleavage (more negative = more Rep cleavage of the k-mer); sequences stand for … in CTCGTCCG…ACCGGAGA
# Protocol: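 A pool of 90-nt single-stranded DNAs with seven random bases just before the constant AC of the nick site (name = the seven bases) was cut by 3 µM recombinant His6-SUMO-tagged Rep nickase domain (300 nM DNA, 50 mM HEPES pH 8.0, 50 mM NaCl, 1 mM MnCl2, 1 h, 37 °C, three replicates). Uncut DNA was amplified and sequenced.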
row,Sequence,uncleaved DNA left (log2)
1,AAGGGAA,0.0745
2,TCCCGAA,-0.227
3,ACATTGT,-0.0684
4,CTCTGAA,0.0754
5,ATATTGG,0.0881
6,GAAAGGT,0.0415
7,ATGAGCC,-0.0787
8,CATCATA,-0.0963
9,ATAATGG,0.0496
10,GAAATGG,0.0492
11,GGGGCGT,0.172
12,CGAAAGG,0.136
13,AAAAAGT,0.0747
14,CCTCGAG,0.0367
15,ACGTAGG,0.107
16,AACGTTC,-0.00309
17,AAGACAT,0.108
18,GAACCCG,-0.128
19,TATACAT,0.00383
20,TACAATT,-0.508

row,Sequence,uncleaved DNA left (log2)
1,TTTTCTT,0.00486
2,CAGAACA,0.15
3,TCTTATG,-0.0186
4,TACTAAT,-0.933
5,GGCGGGT,-0.0463
6,TACATGT,-0.0975
7,TTGGAAC,-0.0661
8,AGCGCTT,0.0761
9,AGTAAAG,0.153
10,GGAGCTG,0.208
11,GCCATAC,-0.069
12,CGTCGTG,0.103
13,TAACAGA,0.0051
14,CGCGGGG,-0.000632
15,CTTTCTG,-0.241
16,ATGAGCT,0.145
17,ATGGAAC,0.202
18,TTCGGAG,0.053
19,AGCCCGG,0.0181
20,TGTGGCT,-0.0443
